Test results reported in PubChem BioAssay AID504845 (National Center for Advancing Translational Sciences (NCATS), 2011).
Among all 390,000 compounds or so, about 150 (0.038%) were called active. Inconclusive results, whose numbers are uncertain, are shown with a selection of clear calls. Calls come from the whole dose curve; as a rule, active = well fitted inhibition curve with a large enough effect; inconclusive = small, poorly fitted or top-dose-only effect; inactive = no such curve, though single readings can be large or run the other way. Potencies of inconclusive entries are doubtful fits and often do not repeat.

target: Regulator of G-protein signaling 4 (Homo sapiens) (UniProt P49798); test: Inhibitors of Regulator of G Protein Signaling (RGS) 4: qHTS; conditions: Transcreener GDP fluorescence polarization, RGS4-accelerated GTP hydrolysis; series mostly up to 114 µM; note: nearly all actives have a fitted effect of over 75% in size
Procedure, shortened: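 MLSMR compounds (23 nl, pin-transferred) preincubated 10 min at room temperature with a 500nM (2x) first reagent, then RGS4 at 900nM (2x) plus Transcreener GDP mix added; fluorescence polarization (620/688 nm) read before and after 90 min at 30 °C.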
Potency is the fitted concentration of half-maximal effect; tags give direction and shape of the fitted curve.

UniProt P49798, sequence (P49798 whole entry, looked up): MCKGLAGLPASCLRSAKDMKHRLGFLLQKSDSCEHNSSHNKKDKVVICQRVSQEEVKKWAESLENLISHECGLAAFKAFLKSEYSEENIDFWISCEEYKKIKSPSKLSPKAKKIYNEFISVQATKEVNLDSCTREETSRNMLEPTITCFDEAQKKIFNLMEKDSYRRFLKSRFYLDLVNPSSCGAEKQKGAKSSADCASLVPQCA

Question: For `Cc1ccc(-n2c(N)c(C(=O)N3CCCCC3)sc2=S)cc1`, which Potency is on record?
Answer: inconclusive: 100 µM [inhibitor, partial curve, poor fit]

Question: Which Potency does the source give for `CCNc1ccc2noc3c2c1C(=O)c1ccccc1-3` here?
Answer: inactive

Question: Which Potency does the source give for `Cc1noc(NS(=O)(=O)c2ccc(NC(=O)CSc3nc4c(cc3C#N)CCC4)cc2)c1C` here?
Answer: inconclusive: 56.2 µM [inhibitor, partial curve, poor fit]

Question: Which Potency does the source give for `O=C(N/N=C/c1ccccc1C(=O)O)c1cccc(S(=O)(=O)N2CCCCC2)c1` here?
Answer: inactive

Question: `COc1cccc(C(=O)NCC(c2ccc(N(C)C)cc2)N2CCc3ccccc32)c1OC` (stereo not given) was tested. Which Potency did it give?
Answer: inactive

Question: For `COc1ccc(S(=O)(=O)Cc2ccc(C(=O)NC(C)C)o2)cc1`, which Potency is on record?
Answer: inconclusive: 50.1 µM [inhibitor, partial curve, poor fit]

Question: With `CO/N=C\CC(=O)Nc1ccc(Cl)cc1Cl` as the molecule, how does the Potency read?
Answer: inconclusive: 25.1 µM [inhibitor, full curve, poor fit]

Question: For `COc1ccc(NC(=O)/C(Cl)=C(/Cl)S(=O)Cc2ccccc2Cl)cn1` (stereo not given), which Potency is on record?
Answer: inactive

Question: How did the Potency turn out when `COc1cc(C2C3=C(COC3=O)Oc3cc4c(cc32)OCO4)ccc1O` (stereo not given) was run?
Answer: inactive

Question: For `Cc1nc2c([nH]1)c(=O)n(C)c(=O)n2Cc1ccco1`, which Potency is on record?
Answer: inconclusive: 3.36 µM [inhibitor, partial curve, poor fit]

Question: Which Potency does the source give for `O=C1C=CC2=C3c4cc(O)c(O)cc4CC3(O)COC2=C1O` (stereo not given) here?
Answer: inconclusive: 56.2 µM [inhibitor, partial curve, poor fit]

Question: For `Cc1ccc(-c2nc(=N)sn2Cc2ccccc2)cc1`, which Potency is on record?
Answer: inconclusive: 17.8 µM [inhibitor, full curve, poor fit]

Question: `CN(CCC#N)C(=O)COC(=O)c1c2c(nc3ccccc13)/C(=C\c1ccco1)CC2` was tested. Which Potency did it give?
Answer: inconclusive: 50.1 µM [inhibitor, partial curve, poor fit]

Question: With `COc1cc(C(c2c(C)[nH][nH]c2=O)c2c(C)[nH][nH]c2=O)cc(OC)c1OC` as the molecule, how does the Potency read?
Answer: inconclusive: 17.8 µM [inhibitor, full curve, poor fit]

Question: Which Potency does the source give for `O=c1[nH]n(-c2ccccn2)c(=O)c2ccccc12` here?
Answer: inconclusive: 70.8 µM [inhibitor, partial curve, poor fit]

Question: For `COc1cccc(C(=O)C(C#N)=C(SC)SC)c1`, which Potency is on record?
Answer: inconclusive: 17.8 µM [inhibitor, full curve, poor fit]

Question: How did the Potency turn out when `c1ccc(-c2ccc(OCCCNC3CCCC3)cc2)cc1` was run?
Answer: inconclusive: 100 µM [inhibitor, single point]

Question: How did the Potency turn out when `Cc1cc(O)c(C(C)C)cc1N=Cc1ccccc1[N+](=O)[O-]` was run?
Answer: inconclusive: 20 µM [inhibitor, full curve, poor fit]

Question: How did the Potency turn out when `CCCC(=O)Nc1ccc(C(=O)NNC(=S)NC(=O)c2ccc(Br)o2)cc1` was run?
Answer: inconclusive: 17.8 µM [inhibitor, full curve, poor fit]

Question: How did the Potency turn out when `Cn1ccnc1SCC(=O)c1ccc(Cl)cc1` was run?
Answer: inactive

Question: For `CN(C)C(=O)c1sccc1Oc1ccc(F)cc1[N+](=O)[O-]`, which Potency is on record?
Answer: inconclusive: 70.8 µM [inhibitor, partial curve, poor fit]

Question: Which Potency does the source give for `COc1cc(N2CCCC2)c(OC)cc1/C=C1/NC(=S)NC1=O` here?
Answer: inconclusive: 20 µM [inhibitor, full curve, poor fit]

Question: How did the Potency turn out when `O=C(Nc1ccc(F)c(Cl)c1)C1Cc2ccccc2CN1S(=O)(=O)c1ccc(F)cc1` (stereo not given) was run?
Answer: inactive

Question: For `CCCCn1c(O)c(N=NC(=O)c2ccco2)c2ccccc21`, which Potency is on record?
Answer: inconclusive: 28.2 µM [inhibitor, full curve, poor fit]

Question: For `O=C(COC(=O)COc1ccccc1)Nc1ncc([N+](=O)[O-])s1`, which Potency is on record?
Answer: inactive

Question: Which Potency does the source give for `CCOC(=O)c1c(NC(=O)COc2cccc(C)c2C)sc2c1CCCCC2` here?
Answer: inconclusive: 112 µM [inhibitor, partial curve, poor fit]

Question: Which Potency does the source give for `O=C1c2ccccc2-c2onc3c(N4CCN(CCO)CC4)cc(N4CCN(C(=O)c5ccco5)CC4)c1c23` here?
Answer: inconclusive: 50.1 µM [inhibitor, partial curve, poor fit]

Question: With `Cc1ccc(C2=NN(CC(=O)NC(C)c3ccccc3)C(=O)CC2)cc1` (stereo not given) as the molecule, how does the Potency read?
Answer: inactive

Question: How did the Potency turn out when `O=C(/C=C/c1c(F)cccc1Cl)c1ccc(O)cc1` was run?
Answer: inconclusive: 79.4 µM [inhibitor, partial curve, poor fit]

Question: With `CN1C(=O)/C(=C/c2cccc([N+](=O)[O-])c2)C(=O)N1c1ccccc1` as the molecule, how does the Potency read?
Answer: inconclusive: 28.2 µM [inhibitor, full curve, poor fit]

Question: With `O=C(COC(=O)c1ccc([N+](=O)[O-])o1)NC1CCCCC1` as the molecule, how does the Potency read?
Answer: inactive

Question: With `O=C(O)c1cccc(S(=O)(=O)Nc2ccc3c(c2)OCO3)c1` as the molecule, how does the Potency read?
Answer: inconclusive: 70.8 µM [inhibitor, single point]

Question: How did the Potency turn out when `O=C(Nc1nc(-c2ccc(Cl)s2)cs1)c1cccs1` was run?
Answer: inconclusive: 100 µM [inhibitor, partial curve, poor fit]

Question: `CC(O)(CS(=O)(=O)Cc1ccccc1)c1ccccc1` (stereo not given) was tested. Which Potency did it give?
Answer: inconclusive: 89.1 µM [inhibitor, single point]

Question: For `O=C1C2C3C=CC(C3=C3CCCCC3)C2C(=O)N1c1ccccc1` (stereo not given), which Potency is on record?
Answer: inactive

Question: `CCOC(=O)c1ccccc1N/C=C/C(=O)c1ccccc1` was tested. Which Potency did it give?
Answer: inactive

Question: For `CCc1ccc(-c2nc(SCC(=O)NC3CC3)n[nH]2)cc1`, which Potency is on record?
Answer: inactive

Question: Which Potency does the source give for `CCC(=O)Nc1nc(=S)ss1` here?
Answer: inconclusive: 28.2 µM [inhibitor, full curve, poor fit]

Question: For `CCOc1ccccc1CNC(=O)CCCn1c(=O)c2cccn2c2cccnc21`, which Potency is on record?
Answer: inactive

Question: For `COc1ccccc1-c1oc2ccccc2c1-c1ccc2c(c1)OCO2`, which Potency is on record?
Answer: inactive

Question: How did the Potency turn out when `O=C(Oc1ccc(-c2cnc3ccccc3n2)cc1)c1ccc(Br)o1` was run?
Answer: inconclusive: 10 µM [inhibitor, full curve, poor fit]

Question: For `CNC(=S)NNC(=O)c1oc2nc(-c3ccccc3)cc(C)c2c1N`, which Potency is on record?
Answer: inconclusive: 112 µM [inhibitor, partial curve, poor fit]

Question: How did the Potency turn out when `CCc1ccc(/C(C)=N/Nc2cc(Cl)nc(C)n2)cc1` was run?
Answer: inconclusive: 89.1 µM [inhibitor, single point]

Question: For `COc1ccc(C(=O)/C=C2/C(=O)Nc3ccccc32)c(OC)c1`, which Potency is on record?
Answer: inconclusive: 35.5 µM [inhibitor, partial curve, poor fit]

Question: For `COc1ccc(/C=C2\SC(=S)N(CCC(=O)N3CCCCC3)C2=O)cc1`, which Potency is on record?
Answer: inactive

Question: Which Potency does the source give for `CC(=O)Nc1ccc(S(=O)(=O)NCC(CCC(=O)O)C(F)(F)F)cc1` (stereo not given) here?
Answer: inconclusive: 17.8 µM [inhibitor, full curve, poor fit]

Question: `O=C(NCC1CCCO1)C(Cc1ccccc1)N1C(=O)C2C3C=CC(C4CC34)C2C1=O` (stereo not given) was tested. Which Potency did it give?
Answer: inconclusive: 50.1 µM [inhibitor, partial curve, poor fit]

Question: With `COc1ccc(N=C2NC(=O)/C(=C\C=C\c3ccco3)S2)cc1` as the molecule, how does the Potency read?
Answer: inconclusive: 100 µM [inhibitor, partial curve, poor fit]

Question: How did the Potency turn out when `O=C(NC1CCCCC1)c1sc(=S)n2c1[nH]c(=O)c1ccccc12` was run?
Answer: inconclusive: 17.8 µM [inhibitor, full curve, poor fit]

Question: `COc1ccc(/C=C\C(=O)c2c(O)ccc3c(C)cc(=O)oc23)cc1OC` was tested. Which Potency did it give?
Answer: inconclusive: 50.1 µM [inhibitor, partial curve, poor fit]

Question: Which Potency does the source give for `CCn1c(=N)n(CC(=O)c2ccc(OC)cc2)c2ccccc21` here?
Answer: inactive

Question: How did the Potency turn out when `O=c1cc2oc3cc(O)c(O)cc3c(-c3ccccc3[N+](=O)[O-])c-2cc1O` was run?
Answer: inconclusive: 79.4 µM [inhibitor, partial curve, poor fit]

Question: With `COc1ccccc1Nc1nc(C)nc2c1oc1ccccc12` as the molecule, how does the Potency read?
Answer: inconclusive: 50.1 µM [inhibitor, partial curve, poor fit]

Question: For `CCn1c(=NC(=O)c2ccc(N3C(=O)CCC3=O)cc2)sc2c(OC)ccc(OC)c21`, which Potency is on record?
Answer: inconclusive: 28.2 µM [inhibitor, full curve, poor fit]

Question: Which Potency does the source give for `CC1(C)CC(=O)C2=C(C1)Nc1[nH]c(=S)[nH]c(=O)c1C2c1ccccc1` (stereo not given) here?
Answer: inconclusive: 11.2 µM [inhibitor, full curve, poor fit]

Question: With `C#CCOCCOCCOCCNc1nc(N2CCN(C(=O)C(Cc3cc4ccccc4[nH]3)n3cc(C(N)C(C)CC)nn3)CC2)nc(N2CCN(C(=O)C(Cc3cc4ccccc4[nH]3)n3cc(C(N)C(C)CC)nn3)CC2)n1` (stereo not given) as the molecule, how does the Potency read?
Answer: inconclusive: 28.2 µM [inhibitor, full curve, poor fit]

Question: For `Nc1nc(Cl)nc2c1ncn2C1OCC(O)C(O)C1O` (stereo not given), which Potency is on record?
Answer: inactive

Question: Which Potency does the source give for `CN1/C(=C\C(=O)COc2ccc3c(c2)OCO3)C(C)(C)c2ccccc21` here?
Answer: inactive

Question: With `CCC1(C)Cc2c(sc3[nH]c(=O)[nH]c(=O)c23)CS1` (stereo not given) as the molecule, how does the Potency read?
Answer: inactive

Question: `NS(=O)(=O)c1cc(C(=O)OCC(=O)c2ccc3c(c2)OCCO3)ccc1Cl` was tested. Which Potency did it give?
Answer: inconclusive: 35.5 µM [inhibitor, full curve, poor fit]

Question: For `Cc1ccc2oc3c(c(=O)c2c1)C(c1cccc(O)c1)N(CCCN1CCOCC1)C3=O` (stereo not given), which Potency is on record?
Answer: inconclusive: 56.2 µM [inhibitor, partial curve, poor fit]

Question: `CC(C)COc1ccc(C(=O)OCC(=O)NCCC2=CCCCC2)cc1` was tested. Which Potency did it give?
Answer: inconclusive: 89.1 µM [inhibitor, single point]

Question: For `CN(C)C(=O)CCc1ccc2c3c([nH]c2c1)[C@]1(C)[C@@H](C(=O)N2CCCCC2)C[C@H](CC(=O)NCCCn2ccnc2)C(=O)N1CC3`, which Potency is on record?
Answer: inconclusive: 112 µM [inhibitor, partial curve, poor fit]

Question: Which Potency does the source give for `Cc1cccc(N2C(=O)C=CC2=O)c1` here?
Answer: inconclusive: 39.8 µM [inhibitor, partial curve, poor fit]

Question: Which Potency does the source give for `COc1ccccc1C1=NOC(Cn2c(=O)c3c(ncn3C)n(C)c2=O)C1` (stereo not given) here?
Answer: inconclusive: 79.4 µM [inhibitor, partial curve, poor fit]
